From PMC4336329 (PLoS ONE, 2015)
In all, about 310,000 compounds went through this assay and about 2,200 (0.71%) showed an effect of 50% or more. Effects have a minus sign here. The list shows a part of the results.

Target: human ether-à-go-go-related gene (hERG) potassium channel (human, UniProt Q12809)
Experiment: primary screen, population patch clamp on CHO cells stably expressing hERG

Sequence of human ether-à-go-go-related gene (hERG) potassium channel (Q12809 whole entry, looked up): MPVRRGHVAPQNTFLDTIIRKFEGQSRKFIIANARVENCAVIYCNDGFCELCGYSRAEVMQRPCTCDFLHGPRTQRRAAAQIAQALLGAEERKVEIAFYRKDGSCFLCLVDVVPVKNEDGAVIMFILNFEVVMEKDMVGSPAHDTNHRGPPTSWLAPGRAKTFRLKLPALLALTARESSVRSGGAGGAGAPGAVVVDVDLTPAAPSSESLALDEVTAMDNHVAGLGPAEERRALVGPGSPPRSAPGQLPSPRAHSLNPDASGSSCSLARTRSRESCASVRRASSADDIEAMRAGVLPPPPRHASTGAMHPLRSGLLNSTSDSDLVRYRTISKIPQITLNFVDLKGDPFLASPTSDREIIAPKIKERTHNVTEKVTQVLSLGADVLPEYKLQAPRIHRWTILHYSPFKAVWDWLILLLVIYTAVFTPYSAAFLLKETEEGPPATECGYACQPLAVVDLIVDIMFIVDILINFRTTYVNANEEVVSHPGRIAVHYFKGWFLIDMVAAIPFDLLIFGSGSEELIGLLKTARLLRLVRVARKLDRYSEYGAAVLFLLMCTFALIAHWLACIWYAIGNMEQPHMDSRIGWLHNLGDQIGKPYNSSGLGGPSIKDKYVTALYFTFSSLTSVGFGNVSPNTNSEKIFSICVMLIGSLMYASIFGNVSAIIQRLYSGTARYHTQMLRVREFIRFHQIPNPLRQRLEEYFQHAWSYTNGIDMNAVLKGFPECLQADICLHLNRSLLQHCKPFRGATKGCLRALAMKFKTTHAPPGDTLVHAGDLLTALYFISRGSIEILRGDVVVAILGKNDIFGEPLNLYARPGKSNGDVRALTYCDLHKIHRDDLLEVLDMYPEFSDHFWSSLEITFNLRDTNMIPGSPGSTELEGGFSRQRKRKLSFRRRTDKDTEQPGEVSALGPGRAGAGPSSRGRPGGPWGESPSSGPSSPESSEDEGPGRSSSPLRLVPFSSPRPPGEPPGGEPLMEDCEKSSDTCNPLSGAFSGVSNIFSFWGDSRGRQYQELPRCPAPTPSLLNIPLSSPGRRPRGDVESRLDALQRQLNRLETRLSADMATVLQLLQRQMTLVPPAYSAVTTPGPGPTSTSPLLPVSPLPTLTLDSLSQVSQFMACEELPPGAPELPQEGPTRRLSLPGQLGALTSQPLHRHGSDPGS

Row | SMILES | hERG current change (%, negative = inhibition) at 1uM [%]
1 | CC(=O)c1ccccc1NC(=O)C1CC(=O)N(c2ccc3c(c2)OCCO3)C1 (stereo not shown) | 12.3
2 | Cn1c(=O)c2c(nc(NC3CCCCC3)n2CC(=O)C23CC4CC(CC(C4)C2)C3)n(C)c1=O | 15.4
3 | Cc1[nH]n(-c2ccccc2)c(=O)c1C=Nc1cccc(F)c1 | 20.6
4 | CC(C)C(C(=O)Nc1ccc2c(c1)OCCOCCOCCOCCO2)N1C(=O)c2ccccc2C1=O (stereo not shown) | -13.2
5 | CN(C)CC(O)COC(c1ccccc1)c1ccccc1 (stereo not shown) | -9.84
6 | COc1ccc(CNC(=O)CN(C)Cc2ccccc2F)cc1OC | 3.05
7 | CN1C(=O)/C(=C/c2cc(N=Nc3ccccc3)ccc2O)SC1=S | 2.94
8 | CCOC(=O)C1C(=O)C=C(/C=C/c2ccc(N(C)C)cc2)CC1c1ccccc1 (stereo not shown) | 3.69
9 | O=C(NCC1CCC(C(=O)O)CC1)OCc1ccccc1 (stereo not shown) | -4.81
10 | COc1ccc(CCNC(=O)C(=O)NCCC2CCCCN2S(=O)(=O)c2ccccc2)cc1 (stereo not shown) | 9.02
11 | CC(C)C(=O)NCCc1nc(-c2ccccc2Cl)no1 | 15.5
12 | Cc1ccc(-c2cc(C(F)(F)F)nc(SCC(=O)c3cccc([N+](=O)[O-])c3)n2)cc1 | 15.7
13 | c1ccc(-c2nc3ccccc3[nH]2)cc1 | 13.2
14 | CC(=O)c1ccc(NC(=O)CSc2nccn2C)cc1 | 6.61
15 | O=C(O)CN1c2cccc3cccc(c23)S1(=O)=O | 21.1
16 | Cc1ccc(NC(=O)CSc2nc3nc(C)cc(C)c3c(=O)[nH]2)cc1 | 12
17 | CC1CCN(C(=O)c2ccccc2NC(=O)c2cccc(S(=O)(=O)N(C)C)c2)CC1 | 5.45
18 | CCCCOc1ccc(C(=O)Nn2c(-c3cccs3)nc3ccccc3c2=O)cc1 | -7.32
19 | CC(=O)Nc1ccc(S(=O)(=O)N2CCSCC2)cc1 | 12.7
20 | Br.Cc1ccc(C2=CSC3=NCCN23)cc1 | 11.3
21 | Cc1cnn(Cc2cccnc2)c1N | 13.6
22 | Cc1ccc(C)c(S(=O)(=O)N2CCN(C(=O)CN3C(=O)NC(C)(C)C3=O)CC2)c1 | 12
23 | Cc1cccc(C(=O)NNC(=O)c2ccc(S(=O)(=O)N3CCOCC3)cc2)c1 | 14.4

Row | SMILES | hERG current change (%, negative = inhibition) at 1uM [%]
24 | CCOc1ccc(Nc2nc(N3CCOCC3)nc(N3CCOCC3)n2)cc1 | 9.02
25 | CC(=O)c1ccccc1NS(=O)(=O)c1cccc2nsnc12 | 11.5
26 | CC1CCC(=O)N(CCC#N)CC1 (stereo not shown) | -3.3
27 | COc1ccc(N2CCN(C(=O)CCNS(=O)(=O)c3cccs3)CC2)cc1 | 0.22
28 | CCOC(=O)/C(C#N)=C\C1=C(N2CCOCC2)CC(C)(C)OC1 | 6.93
29 | Cc1c(CN(C)C(=O)/C=C/c2ccc([N+](=O)[O-])cc2)cnn1C | -65.5
30 | CCOc1ccc(S(=O)(=O)NCc2csc(C)n2)cc1 | 3.95
31 | O=C(Oc1nsnc1N1CCOCC1)N1CCCC1 | 9.57
32 | O=C(NCCOC(=O)c1ccc(S(=O)(=O)N2CCOCC2)cc1)c1cccnc1 | -2.36
33 | CN1CCN(NC(=O)c2cn(-c3ccccc3)nc2-c2ccc(OC(F)F)cc2)CC1.Cl | 5.29
34 | Cc1ccc(S(=O)(=O)N2CC(O)C[C@H]2C(=O)OCC(=O)Nc2ccc(N3CCCCC3)cc2)cc1C (stereo partly shown) | 5.47
35 | c1cncc(-c2nn3c(Cn4nnc5ccccc54)nnc3s2)c1 | -8.94
36 | Cc1ccc(C)c(-n2nnnc2SCC(=O)c2ccc3c(c2)NC(=O)CO3)c1 | 9.48
37 | CCOC(=O)c1c(S(=O)(=O)Nc2cccc(Cl)c2)c(C)n(C)c1C | 13.6
38 | O=C(COc1ccc(Cl)cc1)NCCS(=O)(=O)N1CCN(c2ccccc2F)CC1 | 19.4
39 | O=C(Cn1c2ccc(F)cc2c2nc3n(c(=O)c21)CCS3)NCC1CCCO1 (stereo not shown) | 9.28
40 | O=C(C1CCCO1)N(Cc1ccccc1)c1ccccc1 (stereo not shown) | 1.69
41 | CCN1CCN(Cc2c(O)ccc3c2O/C(=C\C=C\c2ccccc2)C3=O)CC1 | 13.4
42 | O=S(=O)(Nc1ccc(N2CCOCC2)cc1)c1ccc(F)cc1F | 4.78
43 | O=C1CC(N2CCN(C(c3ccccc3)c3ccccc3)CC2)C(=O)N1 (stereo not shown) | 6.97
44 | COc1ccc(S(=O)(=O)NCCSc2ccccc2)cc1OC | 7.31
45 | COCCN1CCN(C(=O)c2cc(COc3cncc(Cl)c3)on2)CC1 | 7.46
46 | CCc1cc(C(=O)OC)c(NC(=O)CSc2nccn2C)s1 | -1.72
